Data on 90 compounds can be found in PubChem BioAssay AID463173 (ICCB-Longwood Screening Facility, Harvard Medical School, 2010).

Structures are written as SMILES. In all, about 52,000 compounds went through this assay and about 1,700 (3.3%) were called active. No stated cut-off is given here; in the data, active means survival mostly below about 52% (no sharp cut-off); inactive means mostly above about 56%. The list shows a part of the results.

The subject of the assay is Wild type. Put plainly: growth inhibition of S. aureus wild type versus tarO mutant, primary screen, teichoic acid synthesis inhibitors, RN4220, OD600 (AID 463173). The note with it: S. aureus RN4220 wild type/DeltatarO growth, OD600, 18 h, stronger effect = lower value, screened at 18.75 µg/mL (by protocol).
Regarding `CCc1ccc(NC(=O)CCn2c(=O)c3cccn3c3ccccc32)cc1`, the survival is inactive: 73%.
In the case of `COc1ccc(NC(=O)CSc2ccc3nc(-c4ccccc4)cn3n2)c(OC)c1`, the survival is inactive: 84%.
As to `Cc1ccccc1NC(=O)CSc1nc2ccc(NC(=O)c3cccs3)cc2s1`, the survival was inactive: 98%.
Regarding `Cc1ccc(-n2nnnc2CNC(=O)c2cc(C(F)(F)F)cc(C(F)(F)F)c2)cc1C`, the survival is active: -3%.
With `CCN(CC)C(=O)c1cc2sccc2n1Cc1ccc(F)cc1` the figure was inactive: 132%; with `COc1cccc(CNC(=O)COc2cc(=O)n(C)c3ccccc23)c1`, inactive: 66%; with `Cc1ccc(N2CCN(S(=O)(=O)c3cccc4ccccc34)CC2)cc1Cl`, inactive: 126%.
As to `COc1cc(C2C(C(=O)c3ccco3)=C(O)C(=O)N2CCc2ccccc2)ccc1O` (stereo not given), the survival is inactive: 96%.
Consider `COc1ccccc1S(=O)(=O)Cc1ccc(C(=O)NCc2ccc(Cl)cc2)o1`, for which the survival is inactive: 75%.
For the compound `COc1ccc(S(=O)(=O)Nc2ccc(-c3cn4c(C)csc4n3)cc2)cc1`, the survival was inactive: 78%.
In the case of `COc1ccc(-n2ncc3c(NC4CCCC4)ncnc32)cc1`, the survival was inactive: 129%.
Regarding `O=C(Nc1cccc(C(F)(F)F)c1)c1cc(CN2CCOCC2)on1`, the survival was inactive: 129%.
As for `COc1ccc(-c2csc(N)n2)cc1C`, the survival is inactive: 117%.
For the compound `O=C(Nc1ccccc1F)c1ccc2c(Cl)c3c(nc2c1)CCC3`, the survival is inactive: 34%.
Consider `CCCNc1ccc(-c2nc(-c3ccccn3)no2)cc1[N+](=O)[O-]`, for which the survival is inactive: 122%.
On to `CCCCNC(=O)c1ccc2c(c1)ncn2-c1cc(OC)ccc1OC`, for which the survival is inactive: 118%.
Consider `Cc1c(Cl)cccc1-n1ncc(C(=O)Nc2ccc(Br)cc2F)c1C1CCNCC1`, for which the survival is inactive: 79%.
As for `CCCn1c(SCC(=O)N(C2CCCCC2)C2CCCCC2)nc2c1c(=O)n(C)c(=O)n2C`, the survival is inactive: 102%.
Consider `CCOc1ccc2nc(SCC(=O)O)c(C)cc2c1`, for which the survival is inactive: 116%.
To `CCN(CCCNC(=O)c1nn(-c2ccc(OC)cc2)c(=O)c2c1c1ccccc1n2C)c1ccccc1` belongs inactive: 82%; to `CCOc1ccccc1CNCc1cccn1-c1nnc(N2CCN(c3ccccc3)CC2)s1`, inactive: 60%.
Turning to `COc1ccccc1NC(=O)C1=C(C)Nc2nnnn2C1c1ccc(C(F)(F)F)cc1` (stereo not given), the survival is inactive: 85%.
Consider `CCc1cccc(NC(=O)CCNS(=O)(=O)c2cccc3nonc23)c1`, for which the survival is inactive: 106%.
With `COC(=O)c1ccc(NC(=O)c2nc(-c3ccc(Cl)cc3)n3c2CCCCC3)cc1` the figure was inactive: 80%.
To `CCOC(=O)Cn1cnc2sc(C(=O)OCC)c(C)c2c1=O` belongs inactive: 101%.
To `CC(=O)c1ccc(NC(=O)c2cc(-c3ccc(C)s3)nc3ccccc23)cc1` belongs inactive: 91%; to `CCC(C)NC(=O)Cn1c(=O)n(CCCCCC(=O)NCc2ccccc2Cl)c(=O)c2sccc21` (stereo not given), inactive: 128%; to `O=C(NCc1cccc(Br)c1)c1cnn(-c2ccc(F)cc2)c1-n1cccc1`, inactive: 70%.
Consider `CC(C)(C)CC(=O)NCC(c1ccc2c(c1)OCO2)N1CCN(c2ccccc2)CC1` (stereo not given), for which the survival is inactive: 68%.
Take `O=C1C(c2ccc(F)cc2)N(CCc2ccc(Cl)cc2)C(=O)CN1C1CCCCCC1` (stereo not given): the survival was inactive: 63%.
Take `CCOC(=O)N1CCc2c(sc3c2c(=O)n(CCc2ccccc2)c(=O)n3CC(=O)Nc2ccc(C)cc2)C1`: the survival is inactive: 89%.
On to `O=C(CSc1nccn1-c1ccc(Cl)cc1)Nc1ccc(Cl)c(Cl)c1`, for which the survival was inactive: 73%.
As for `COc1cc(NC(=O)N2c3ccccc3Sc3ccccc32)cc(OC)c1`, the survival was inactive: 65%.
For the compound `COc1ccccc1C(=O)NCC(c1cccnc1)N1CCc2ccccc2C1` (stereo not given), the survival is inactive: 84%.
Regarding `O=C(CC(c1ccccc1)c1ccccc1)N1CCN(Cc2ccc3c(c2)OCO3)CC1`, the survival is inactive: 105%.
As for `CCCOC(=O)c1c(NC(=O)C(C)Sc2nc(-c3ccccc3)cc(C(F)(F)F)n2)sc(C(=O)N(C)C)c1C` (stereo not given), the survival is inactive: 93%.
Consider `CN1CCc2c(sc(NC(=O)CSc3ccccc3)c2-c2nc3ccccc3s2)C1`, for which the survival is inactive: 80%.
Take `Cc1cccc(N2CCN(C(=O)CN3C(=O)CSc4c3c(C)nn4-c3ccccc3)CC2)c1C`: the survival was inactive: 68%.
Turning to `COc1cc(NC(=O)CCc2c(C)nn(-c3ccc4nnc(C)n4n3)c2C)cc(OC)c1OC`, the survival was inactive: 87%.
As to `CCc1ccc(NC(=O)[C@H](Cc2ccccc2)N2Cc3ccccc3C2=O)cc1`, the survival was inactive: 87%.
On to `CN(C)CCNC(=O)C1CCN(Cc2cc3ccccc3n2Cc2ccccc2)CC1`, for which the survival is inactive: 78%.
For `CCOc1ccc(S(=O)(=O)c2c(C(=O)c3ccc(CC)cc3)cnc3ccc(C)cc23)cc1`, the survival is inactive: 87%.
With `CCOc1ccc(N2CC(NC(=O)c3cccs3)CC2=O)cc1` (stereo not given) the figure was inactive: 88%.
To `CCCN(CCC)CCCNC(=O)c1cc2c(-c3ccc(OC)c(OC)c3)nn(C)c2s1` belongs inactive: 125%; to `COc1ccc(C2C(=O)N(C3CCCCCC3)CC(=O)N2Cc2ccc(C)cc2)cc1` (stereo not given), inactive: 75%; to `O=C1CC(c2nc(-c3ccc(Cl)cc3)no2)CN1c1ccc2c(c1)OCCO2` (stereo not given), inactive: 82%.
For `O=C(CSc1nc2c([nH]c3ccccc32)c(=O)n1-c1ccccc1)N1CCc2ccccc21`, the survival is inactive: 73%.
For `Cc1ccc(S(=O)(=O)n2nc(-c3ccccc3)nc2NCc2ccc(Cl)cc2)cc1`, the survival was inactive: 87%.
Take `S=c1[nH]nc(CCCOc2ccc(Cl)cc2Cl)o1`: the survival is inactive: 95%.
Consider `CSc1ccc(CCNC(=O)CCn2c(=O)c3cccn3c3ccc(F)cc32)cc1`, for which the survival was inactive: 84%.
To `N#Cc1c(N2C(=O)C3C4C=CC(C4)C3C2=O)sc2c1CCCC2` (stereo not given) belongs inactive: 108%; to `CCOC(=O)c1c(NC(=O)c2cc3ccccc3c(=O)o2)sc2c1CCC(C)C2` (stereo not given), inactive: 132%; to `COc1cc(OC)cc(C(=O)Nc2cc3c(cc2N2CCCC2)n(C)c(=O)c(=O)n3C)c1`, inactive: 131%.
As for `CCc1c(C)[nH][n+]2cnn(Cc3ccc(Cl)cc3)c2c1=O`, the survival was inactive: 86%.
For the compound `Cc1ccc(SCC(=O)Nc2ccc3oc(-c4ccccc4C)nc3c2)cc1`, the survival was inactive: 86%.
As for `COc1ccc(-n2c(=O)c3ccccc3n(CC(=O)Nc3ccccc3OC)c2=O)cc1`, the survival is inactive: 89%.
As for `COc1cc(C2CC(=O)Nc3c2c(C)nn3-c2nncc(-c3ccc(C)cc3)n2)cc(OC)c1OC` (stereo not given), the survival was inactive: 96%.
To `Cc1ccc2c(CC(=O)Nc3c(C(=O)c4ccc(C)c(F)c4)oc4ccccc34)coc2c1` belongs inactive: 109%; to `CCOc1ccc(NC(=O)c2cnc3ccccn3c2=O)cc1`, inactive: 91%; to `Cc1ccc(CNC(=O)c2cc(C)nc3c2c(C)nn3-c2ccc(C)cc2)cc1`, inactive: 47%.
`CCCCOc1ccc(C2(C)CC(=O)NC2=O)cc1` (stereo not given): the survival was inactive: 107%.
To `CC(=O)c1ccc(NC(=O)c2cnn(-c3cccc(F)c3)c2-n2cccc2)cc1` belongs inactive: 75%; to `O=C(CN1CCC(n2nnc3ccccc32)CC1)Nc1ccccc1Cl`, inactive: 96%; to `COc1ccc(S(=O)(=O)c2c(O)c3ccc(C(=O)NCc4ccc(F)cc4)cc3[nH]c2=O)cc1`, inactive: 120%.
With `COc1ccc(NC(=O)CSc2nc(-c3ccc(F)cc3)[nH]c2-c2ccc(C)cc2)cc1OC` the figure was inactive: 69%.
Regarding `CCOC(=O)c1[nH]c(C)c(/C=N/O)c1C`, the survival is inactive: 95%.
For `CC(C)CCNC(=O)C1CCN(Cc2ccccc2Cl)CC1`, the survival was inactive: 105%.
To `Cc1ccc2nc(SCC(=O)N(C)C3CCCCC3)c(C#N)cc2c1` belongs inactive: 109%; to `O=C(Nc1ccc(Oc2ccccc2)cc1)C1CCN(S(=O)(=O)c2ccc(Cl)cc2)CC1`, inactive: 74%.
With `CCOc1ccc(CCNC(=O)c2ccc3c(c2)c(C)c(C)n3Cc2ccccc2)cc1OCC`, the survival was inactive: 68%.
As for `CC(C)Nc1nc(C#N)nc(NC(C)C)n1`, the survival is inactive: 130%.
Turning to `O=S(=O)(c1ccc(Cl)cc1)c1nc(-c2ccco2)oc1SCc1ccc(F)cc1`, the survival was inactive: 73%.
To `COc1ccc(CCN2C(=O)c3[nH]nc(-c4ccccc4O)c3C2c2ccc(OC)cc2)cc1` (stereo not given) belongs inactive: 58%; to `COc1ccccc1NC(=O)CCCc1nnc2n(C)c(=O)c3sccc3n12`, inactive: 97%.
Take `CCOC(=O)c1cc(S(=O)(=O)NCc2ccc(C)cc2)[nH]n1`: the survival was inactive: 134%.
On to `Cc1ccc2nc3sc(C(=O)NCCCN(C)c4ccccc4)cc3cc2c1`, for which the survival was inactive: 82%.
With `COc1ccc(NC(=O)CN(c2cc(C)cc(C)c2)S(=O)(=O)c2c(C)noc2C)cc1Cl`, the survival was inactive: 89%.
As to `Fc1cccc(-n2ncc3c2ncn2nc(Cc4ccccc4)nc32)c1`, the survival is inactive: 95%.
As for `COc1ccccc1CNC(=O)CCC1N=C2c3ccccc3N=C(SCc3ccc(C)cc3C)N2C1=O` (stereo not given), the survival is inactive: 76%.
For `COC(CNS(=O)(=O)c1ccc(S(=O)(=O)NC2CC2)cc1)OC`, the survival is inactive: 107%.
As to `COc1ccc(NC(=O)CSc2ccc3nc(-c4ccccc4)cn3n2)cc1OC`, the survival is inactive: 126%.
As to `CC(C)NC(=O)c1nn(-c2ccccc2F)nc1CO`, the survival was inactive: 90%.
On to `O=C(Nc1cccnc1)Nc1c[nH]c2c(Cl)cccc2c1=O`, for which the survival is inactive: 98%.
With `Cc1ccccc1Nc1c(-c2ccc(N3CCOCC3)cc2)nc2ccccn12` the figure was inactive: 58%.
Turning to `COc1ccc(-c2nc(SCC(=O)Nc3ccc4c(c3)OCCO4)c(-c3ccc(C)cc3)[nH]2)cc1OC`, the survival is inactive: 74%.
With `CC(C)(C)OC(=O)N1CCC(c2nnc(SCc3cccc(Cl)c3)o2)CC1` the figure was active: 0%; with `Cc1ccc(CNC(=O)CN2C(=O)COc3ccc(S(=O)(=O)Nc4ccccc4)cc32)cc1`, active: -6%; with `O=C(CSc1nnc(-c2ccc(S(=O)(=O)N3CCCC3)cc2)n1CC1CCCO1)NC1CC1` (stereo not given), inactive: 108%.
On to `CC(C)(C)OC(=O)N/N=C/c1cccc(O)c1`, for which the survival is inactive: 104%.
`Cc1ccc(C)c(NC(=S)N2CCC(c3nc4ccccc4o3)CC2)c1`: the survival was inactive: 108%.
